Measured values taken from PubChem BioAssay AID504333 (National Center for Advancing Translational Sciences (NCATS), 2011).
The campaign covered roughly 360,000 compounds. About 16,000 (4.4%) were called active. The shares of active, inactive and inconclusive entries below differ from those in the screen. Calls follow the shape of the dose curve; as a rule, active = well fitted inhibition curve with a large enough effect; inconclusive = small, poorly fitted or top-dose-only effect; inactive = no such curve, though single readings can be large or run the other way. Potencies of inconclusive entries are doubtful fits and often do not repeat.

target: Bromodomain adjacent to zinc finger domain protein 2B (Homo sapiens) (UniProt Q9UIF8); assay: qHTS Assay for Inhibitors of BAZ2B; details: AlphaScreen BAZ2B-H3K14Ac peptide displacement; series mostly up to 114 µM; also: nearly all actives have a fitted effect of over 60% in size
UniProt Q9UIF8, sequence (Q9UIF8 whole entry, looked up, the tested form may be a part): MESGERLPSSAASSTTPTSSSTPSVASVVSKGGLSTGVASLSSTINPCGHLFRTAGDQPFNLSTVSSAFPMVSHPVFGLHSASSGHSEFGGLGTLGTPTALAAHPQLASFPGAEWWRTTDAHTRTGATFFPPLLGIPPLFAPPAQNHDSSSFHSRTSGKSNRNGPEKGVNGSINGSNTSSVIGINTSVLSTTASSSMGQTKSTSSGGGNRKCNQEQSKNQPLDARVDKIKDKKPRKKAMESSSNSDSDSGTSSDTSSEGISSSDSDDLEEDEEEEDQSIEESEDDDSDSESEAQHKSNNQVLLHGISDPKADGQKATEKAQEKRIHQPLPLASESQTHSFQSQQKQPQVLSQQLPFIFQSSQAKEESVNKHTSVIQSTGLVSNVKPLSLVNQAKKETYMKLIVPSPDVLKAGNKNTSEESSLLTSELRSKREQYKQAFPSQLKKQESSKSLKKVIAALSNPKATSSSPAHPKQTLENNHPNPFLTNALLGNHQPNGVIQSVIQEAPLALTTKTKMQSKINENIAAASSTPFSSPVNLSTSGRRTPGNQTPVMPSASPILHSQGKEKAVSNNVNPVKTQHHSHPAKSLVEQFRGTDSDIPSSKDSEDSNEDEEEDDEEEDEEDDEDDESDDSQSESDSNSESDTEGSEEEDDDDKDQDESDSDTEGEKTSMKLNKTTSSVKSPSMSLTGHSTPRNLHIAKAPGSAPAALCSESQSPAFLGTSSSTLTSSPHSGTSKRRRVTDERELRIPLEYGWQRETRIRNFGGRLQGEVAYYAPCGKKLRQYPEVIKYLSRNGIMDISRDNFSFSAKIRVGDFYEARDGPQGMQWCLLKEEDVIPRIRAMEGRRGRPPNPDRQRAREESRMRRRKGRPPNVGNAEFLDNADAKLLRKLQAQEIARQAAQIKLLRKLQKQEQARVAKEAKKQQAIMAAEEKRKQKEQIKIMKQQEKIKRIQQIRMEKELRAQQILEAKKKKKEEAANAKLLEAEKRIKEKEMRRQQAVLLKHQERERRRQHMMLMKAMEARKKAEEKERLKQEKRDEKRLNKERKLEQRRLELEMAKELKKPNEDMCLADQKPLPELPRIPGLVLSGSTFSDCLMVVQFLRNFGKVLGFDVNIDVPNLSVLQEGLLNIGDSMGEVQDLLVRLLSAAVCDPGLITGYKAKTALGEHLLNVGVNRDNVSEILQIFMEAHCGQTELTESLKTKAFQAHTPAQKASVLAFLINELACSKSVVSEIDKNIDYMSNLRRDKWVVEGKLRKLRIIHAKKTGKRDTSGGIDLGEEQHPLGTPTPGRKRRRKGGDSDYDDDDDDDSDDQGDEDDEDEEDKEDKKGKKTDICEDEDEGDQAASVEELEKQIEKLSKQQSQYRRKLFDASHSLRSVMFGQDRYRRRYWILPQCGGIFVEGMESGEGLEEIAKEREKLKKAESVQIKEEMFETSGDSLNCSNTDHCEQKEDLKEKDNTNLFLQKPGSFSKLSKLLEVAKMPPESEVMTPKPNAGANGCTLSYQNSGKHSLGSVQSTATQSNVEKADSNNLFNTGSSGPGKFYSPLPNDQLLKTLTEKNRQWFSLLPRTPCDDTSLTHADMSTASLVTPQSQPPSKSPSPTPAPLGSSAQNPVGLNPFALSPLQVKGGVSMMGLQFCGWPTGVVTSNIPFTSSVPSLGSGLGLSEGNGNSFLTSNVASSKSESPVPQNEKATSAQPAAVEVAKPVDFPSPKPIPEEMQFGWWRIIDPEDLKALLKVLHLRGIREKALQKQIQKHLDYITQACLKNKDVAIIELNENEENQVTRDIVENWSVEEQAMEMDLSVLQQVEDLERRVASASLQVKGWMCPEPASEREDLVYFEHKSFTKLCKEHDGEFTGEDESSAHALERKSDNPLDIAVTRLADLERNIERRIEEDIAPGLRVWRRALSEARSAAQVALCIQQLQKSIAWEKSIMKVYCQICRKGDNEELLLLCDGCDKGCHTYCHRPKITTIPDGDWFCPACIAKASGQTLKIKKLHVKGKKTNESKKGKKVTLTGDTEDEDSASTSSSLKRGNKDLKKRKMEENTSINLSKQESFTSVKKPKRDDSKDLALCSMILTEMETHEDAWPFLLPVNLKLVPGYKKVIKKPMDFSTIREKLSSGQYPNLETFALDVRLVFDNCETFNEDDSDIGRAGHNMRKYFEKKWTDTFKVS
Method in brief: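 BAZ2B 50 nM plus b-H3(5-23)K14Ac 50 nM, PBS pH 7.4/0.01% Tween-20, 30 min RT; compound added (max 110 uM), 30 min RT; streptavidin donor/Ni-chelate acceptor beads 10 ug/mL final, 20 min dark; AlphaScreen read.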
Potency is read from the fitted curve at half-maximal effect; tags tell the direction and shape of the fitted curve.

| Structure (SMILES) | Potency |
| --- | --- |
| Cc1nnc2c(Nc3cccc(O)c3)nc3ccccc3n12 | inconclusive: 89.1 µM [inhibitor, single point] |
| CCCCOc1ccc2c(c1)C(=O)c1cc(O)ccc1-2 | active: 35.5 µM |
| Cc1cc(-c2csc(N)n2)c(C)n1Cc1ccco1 | inconclusive: 50.1 µM [inhibitor, partial curve] |
| O=C(NNc1ccc(Cl)cc1)c1sccc1Cl | inconclusive: 70.8 µM [inhibitor, single point] |
| Cc1ccc(CNS(=O)(=O)c2ccc(CN3C(=O)c4cccnc4C3=O)s2)o1 | inconclusive: 25.1 µM [inhibitor, single point] |
| N#Cc1c(N)c2ccccn2c1C(=O)c1ccc(Br)cc1 | inactive |
| CCOC(=O)c1cc(CC)sc1NC(=O)COC(=O)c1ccccn1 | inconclusive: 79.4 µM [inhibitor, partial curve] |
| CC1(C)CC(C)(c2ccc(O)cc2O)N(c2cccc(Cl)c2)C(=S)N1 (configuration not stated) | inconclusive: 39.8 µM [inhibitor, partial curve] |
| CC1CN(C(=O)c2cc3cc([N+](=O)[O-])ccc3s2)CC(C)O1 (configuration not stated) | inactive |
| CNNC(=S)Nc1cccc(C(F)(F)F)c1 | inactive |
| COc1cccc(CN2CCN(Cc3cccc(Oc4ccccc4)c3)CC2)c1OC | active: 17.8 µM |
| Cc1ccc(-n2c(C)c(C)c3c(NCCN(C)C)ncnc32)cc1 | inconclusive: 50.1 µM [inhibitor, partial curve] |
| Cc1cccc(C(=O)NCCc2n[nH]c(=S)n2C)c1 | inactive |
| Cn1cnc2cc(NCc3cccs3)ccc21 | inactive |
| O=C(COC(=O)CCN1C(=O)/C(=C\C=C\c2ccccc2)SC1=S)Nc1ccc(Br)cc1 | inconclusive: 56.2 µM [inhibitor, partial curve] |
| COc1ccc(C(O)Cn2ccsc2=NC(C)=O)cc1 (configuration not stated) | inactive |
| CCOC(=O)C1=C(C)NC(C)=C(C(=O)OCC)C1c1cc2ccc(C)cc2[nH]c1=O | inconclusive: 44.7 µM [inhibitor, partial curve] |
| CC(=C\c1ccco1)/C=C1/SC(=S)N(CC(=O)O)C1=O | active: 50.1 µM |
| CCOc1cc(S(=O)(=O)N2CCC(c3nc4ccccc4s3)CC2)c(OCC)cc1S(=O)(=O)N1CCCCC1 | inconclusive: 89.1 µM [inhibitor, single point] |
| CCCC(=O)Nc1cc(C)c(NC(=O)c2ccccn2)cn1 | active: 50.1 µM |
| N#Cc1nc(Cc2ccccc2)oc1NCc1ccccc1Cl | inconclusive: 25.1 µM [inhibitor, full curve, poor fit] |
| O=C(CN1C2CCCC1CC(NC(=O)c1ccccc1)C2)Nc1ccccc1C(F)(F)F (configuration not stated) | inconclusive: 39.8 µM [inhibitor, single point] |
| Cc1ccc(CSc2nc3c(c(=O)[nH]c(=O)n3C)n2CCC(C)C)cc1 | inactive |
| Cc1cc(N2CCN(c3ccccc3)CC2)nc(NCc2ccccc2)n1 | inconclusive: 6.31 µM [inhibitor, partial curve] |

| Structure (SMILES) | Potency |
| --- | --- |
| O=C(N/N=C\C=C\c1ccc([N+](=O)[O-])o1)c1cccs1 | inconclusive: 79.4 µM [inhibitor, single point] |
| COc1cccc(-n2cc3c(c2-c2ccccc2)c(=O)n(C)c(=O)n3C)c1 | inconclusive: 56.2 µM [inhibitor, partial curve] |
| Cc1ccc(NC(=O)CSc2nc(-c3cccs3)nc3cc(=O)[nH]n23)cc1 | active: 79.4 µM |
| O=C(CSc1nc2ncccc2[nH]1)NCc1ccco1 | inconclusive: 79.4 µM [inhibitor, partial curve] |
| CSC1=NSC2=NC(=O)/C(=C\c3ccc(OC(=O)c4ccco4)cc3)C(=N)N12 | inconclusive: 50.1 µM [inhibitor, partial curve] |
| CC(=O)Nc1nnc(-c2ccco2)o1 | inconclusive: 79.4 µM [inhibitor, partial curve] |
| COc1cccc(CNc2ccc(F)c(Cl)c2)c1OC | inconclusive: 89.1 µM [inhibitor, single point] |
| COc1ccc(C)cc1S(=O)(=O)Nc1cc2c3c(c1)CCN3C(=O)CC2 | inactive |
| CCCNC(=O)N1[C@H](c2ccc(C)s2)[C@@H](C)C(=O)[C@@H](C)[C@@H]1c1ccc(C)s1 | inactive |
| Cc1ccc(N2CCN(C(=O)c3cc(-c4ccc(F)cc4)[nH]c3C)CC2C)cc1 (configuration not stated) | active: 44.7 µM |
| COc1ccc(CC(=O)NCC(c2ccc(N(C)C)cc2)N2CCOCC2)cc1 (configuration not stated) | inactive |
| Clc1ccc(C2=NCCN2)cc1 | inconclusive: 35.5 µM [inhibitor, partial curve, poor fit] |
| CC(C)C(NC(=O)c1ccccc1NC(=O)c1ccccc1)C(=O)NCCCn1ccnc1 (configuration not stated) | inactive |
| Cc1ccc(-n2ncc3c(NCCCn4ccnc4)ncnc32)cc1Cl | active: 44.7 µM |
| COc1ccc(NC(=O)C2C3CCC(O3)C2C(=O)O)c(C)c1 (configuration not stated) | inactive |
| C[C@@H]1OC(Nc2ccc(N=Nc3ccccc3)cc2)[C@H](O)[C@H](O)[C@H]1O (some centres not stated) | inconclusive: 70.8 µM [inhibitor, single point] |
| CC1CCN(C(=O)C2CCN(CCCc3ccccc3)CC2)CC1 | inconclusive: 89.1 µM [inhibitor, single point] |
| CC1(C)CC(C(CCN(Cc2ccccc2)C(=O)c2ccco2)c2ccc(F)cc2)CCO1 (configuration not stated) | inconclusive: 39.8 µM [inhibitor, partial curve] |
| COc1ccc(OC)c(CCNC(=O)c2c(C)nn(-c3ccc(F)cc3)c2-n2cccc2)c1 | inconclusive: 50.1 µM [inhibitor, partial curve] |
| C=CCN1C(=O)/C(=C2/Sc3ccccc3N2C)SC1=Nc1ccccc1C | inconclusive: 44.7 µM [inhibitor, partial curve] |
| COc1ccc(OC)c(NC(=O)CN(C)S(=O)(=O)c2ccc3[nH]c4c(c3c2)CCCC4)c1 | inconclusive: 35.5 µM [inhibitor, partial curve] |
| O=C(COC(=O)c1ccc(Cl)nc1)NCc1ccc2c(c1)OCO2 | inconclusive: 79.4 µM [inhibitor, single point] |
| Cc1nnc(SCC2=C(C(=O)O)N3C(=O)C(NC(=O)Cn4nc(C(F)F)cc4C)C3SC2)s1 (configuration not stated) | active: 50.1 µM |
| CCOC(=O)C1(C)/C(=N/Nc2ccccc2Cl)C(=O)C(=O)N1c1ccccc1 (configuration not stated) | active: 50.1 µM |

| Structure (SMILES) | Potency |
| --- | --- |
| COc1ccc(NC(=O)Cn2c(CCC(=O)O)ccc2-c2ccc(C)cc2)cc1 | inconclusive: 50.1 µM [inhibitor, full curve] |
| COCCNC(=O)c1ccc(CSc2nc3ccncc3n2Cc2ccccc2)cc1 | inactive |
| O=C1N=c2ccccc2=C1c1sc(=S)n(Cc2ccccc2Cl)c1O | inconclusive: 28.2 µM [inhibitor, partial curve] |
| CCOc1ccc(NCc2cccn2-c2nnc(N3CCC(C(=O)NCCCN4CCCCC4)CC3)s2)cc1 | active: 39.8 µM |
| COc1ccc(CN2C(=O)c3cccnc3C2=O)cc1S(=O)(=O)N(C)c1cccc(C)c1 | inconclusive: 50.1 µM [inhibitor, partial curve] |
| COc1ccc(Br)cc1S(=O)(=O)N1CCCC1 | inactive |
| N#CCc1ccc(NC(=O)c2ccc(S(=O)(=O)N3CCOCC3)cc2)cc1 | inactive |
| COC(=O)c1c(NC(=O)c2ccccc2F)sc(C(=O)N2CCOCC2)c1C | inactive |
| COc1ccc(C(=O)C(/C=N/O)=N/Nc2ccc(F)cc2)cc1 | inconclusive: 50.1 µM [inhibitor, partial curve] |
| COC(=O)c1ccc(OCC2c3cc(OC)c(OC)cc3CCN2C(=O)C(C)C)cc1 (configuration not stated) | inconclusive: 79.4 µM [inhibitor, single point] |
| Cc1ccc(C)c(CN2C(=O)c3ccccc3S(=O)(=O)c3ccc(C(=O)N4CCN(c5ccccn5)CC4)cc32)c1 | inconclusive: 56.2 µM [inhibitor, partial curve, poor fit] |
| CCc1cccc(N2C(=O)N(CC(=O)NCc3cccc(OC)c3OC)c3ccccc3S2(=O)=O)c1 | inactive |
| CC(=O)N(Cc1ccc(F)cc1)C1=C(NCCc2ccccc2)C(=O)c2ccccc2C1=O | active: 14.1 µM |
| CC(C)CN(Cc1c(O)ccc2ccccc12)CC(C)C | inconclusive: 89.1 µM [inhibitor, single point] |
| Cc1ccc(C(=O)N/C(=C/c2cccs2)C(=O)N2CCCCC2)cc1 | inconclusive: 89.1 µM [inhibitor, single point] |
| CC(CC(=O)NCCc1ccc(Cl)cc1)S(=O)(=O)c1ccc2c(c1)NC(=O)CO2 (configuration not stated) | inactive |
| CCN1C/C(=C\c2cccc(C)c2)c2nc3ccccc3c(C(=O)O)c2C1 | inconclusive: 89.1 µM [inhibitor, single point] |
| Cc1ccc(-c2cn3c(n2)SCC3)cc1 | inconclusive: 70.8 µM [inhibitor, single point] |
| CCN(CC)CCNC(=O)C1CCN(c2nn3cc(-c4ccc(F)cc4)nc3s2)CC1 | inactive |
| Cc1cccn2c(=O)c(C(=O)NCc3ccc(F)cc3)c(O)nc12 | inactive |
| Cc1[nH][nH]c(=O)c1C(c1c(C)[nH][nH]c1=O)c1cn(Cc2ccc(F)cc2)c2ccccc12 | active: 44.7 µM |
| O=C(CCCN1C(=O)/C(=C/c2cccs2)SC1=S)Nc1ccc(O)cc1 | inconclusive: 56.2 µM [inhibitor, partial curve] |
| CC(C)(C)c1cc[n+](/C(C(=S)Nc2ccccc2F)=C(/[O-])c2ccc3c(c2)OCCO3)cc1 | active: 35.5 µM |
| CN(C)CCCN(C(=O)c1ccc(S(=O)(=O)N2CCCCCC2)cc1)c1nc2ccc(F)cc2s1 | inconclusive: 56.2 µM [inhibitor, partial curve] |
